The source gives no read counts; variants with many changes may rest on few reads.
B1: CPEB3 Ribozyme (parent)
chain: UAACAGGGGGCCACAGCAGAAGCGUUCACGUCGCAGCCCCUGUCAGAUUCUGGUGAAUCUGCGAAUUCUGCUGUAUAUCUC

Variants of: B1
Experiment: self-cleavage, relative activity (ratio to wild type); higher = more cleavage; in vitro, sequencing
How it was run: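 Libraries of CPEB3 self-cleaving ribozyme mutants came from rounds of error-prone PCR and carried barcodes, which DNA sequencing matched to variants. In vitro transcription used T7 RNA polymerase at 37°C for 5 hours, with a further 15 min in DNase I before EDTA stopped the reaction; the ribozymes cleaved during both steps. The RNA was reverse transcribed with template switching and sequenced on Illumina. Relative activity is the cleaved/total read fraction of a variant divided by that of the unmutated ribozyme, averaged over three batches with at least 5 reads.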

**Q.** Which self-cleavage does the source give for UAACAGGGGGCCUCUGCAGAAGCGUUCACGUCGCAGCCCCUGUCAGAUUCUGGUGAACCUGCGAAUUCUGCUAUAUAUCUC [A13U A15U U58C G73A] here?
**A.** 0.38

**Q.** With UAACAGGGGGCCUCUGCAGAAGCGUUCACGUCGCAGCCCCUGUCAGAUUCUGGUGAAUCAGCGAAUUCUGCUGUAUAUCUC [A13U A15U U60A] as the variant, how does the self-cleavage read?
**A.** 0.18

**Q.** With UAACAGGGGGCCUCAGCCGAAGCGUUCACGUCGCGGCCCCUGUCAGAUUCUAGUGAAUCUGCGAAUUCUGCUGUAUAACUC [A13U A18C A35G G52A U78A] as the variant, how does the self-cleavage read?
**A.** 0.88

**Q.** For UAACAGGGGGCCUCAGCCGAAGCGUUCACGUCGCAGCCCUUGUCAGAUUCUGGUGAAUCUGCGAACUCUGCUGUAUAUCUC [A13U A18C C40U U66C], which self-cleavage is on record?
**A.** 0.06

**Q.** Which self-cleavage does the source give for UAACAGGGGGCCUCAGCCGAAGCGCUCACGUCGCAGCCCCUGACGGAUUCUGGUGGAUCUGCGAAUUCUGCUGUAUAUCUC [A13U A18C U25C U43A A45G A56G] here?
**A.** 0.19

**Q.** For UAACAGGGGGCCUCAGCCGAAGCGGUCACGUCGCAGCCCCUGUCAGAUUCUGGUGAAUCUGCGAAUUCUGCUGUAUAUCUC [A13U A18C U25G], which self-cleavage is on record?
**A.** 0.34

**Q.** For UAACAGGGGGCCUCAGCCGAAGCGUUCACGCCGCGGCCCCUGCCAGAUUCUGGUGGAUCUGCGAAUUCUGCUGUAUAUCAC [A13U A18C U31C A35G U43C A56G U80A], which self-cleavage is on record?
**A.** 0

**Q.** With UAACAGGGGGCCUCAGCGGUAGCGUUCACGUCGCAGCCCCUGUCCGAUUCUGGUGAAUCUGCGAAUUCUGCAGUAUAUCUC [A13U A18G A20U A45C U72A] as the variant, how does the self-cleavage read?
**A.** 0.08

**Q.** For UAACAGGGGGCCUCAGCGGUAGCGUUCACGUCGCACCUCCUGUCAGAUUCUGGUGAAUCUGCGAGUUCUGCUGUAUAUCUC [A13U A18G A20U G36C C38U A65G], which self-cleavage is on record?
**A.** 0.19

**Q.** Which self-cleavage does the source give for UAACAGGGGGCCUCAGCGGAGGCGAUCACGUCGCAGCCCCUGUCUGAUUCUGGUGAAUCUGCGAAUUCUGCCGUAUAUCUC [A13U A18G A21G U25A A45U U72C] here?
**A.** 0.06

**Q.** Which self-cleavage does the source give for UAACAGGGGGCCUCAGCGGAGGCGUUCACGUCGCAGCCCCAGUCAGAUUCUGGUGAAUCUGCGAAUUCUGCUGUAUAUCAA [A13U A18G A21G U41A U80A C81A] here?
**A.** 0

**Q.** For UAACAGGGGGCCUCAGCGGAAGCGUUCACGUCGCGGCCCCUGUCAGAUUCUGGUGAAACUGCGAAUUCUGCCGUAUAUCUC [A13U A18G A35G U58A U72C], which self-cleavage is on record?
**A.** 0.16

**Q.** With UAACAGGGGGCCUCAGCGGAAGCGUUCACGUCGCGGCCCCUGUCAGAUUCUGGUGAAUCUGCGAAUUCUGCAGUAUAUCUC [A13U A18G A35G U72A] as the variant, how does the self-cleavage read?
**A.** 0.24

**Q.** Which self-cleavage does the source give for UAACAGGGGGCCUCAGCGGAAGCGUUCACGUCGCUGCCCCUGUCAGAUUCUGGUGAAUCUGCGAAUUUUGCCGUAUAUCUC [A13U A18G A35U C68U U72C] here?
**A.** 0.44

**Q.** With UAACAGGGGGCCUCAGCGGAAGCGUUCACGUCGCAGCCCCUGUCGGAUUCUGGUGAAUCUGCGAGUUCUGCUGUAUAUCUC [A13U A18G A45G A65G] as the variant, how does the self-cleavage read?
**A.** 0.31

**Q.** Which self-cleavage does the source give for UAACAGGGGGCCUCAGCGGAAGCGUUCACGUCGCAGCCCCUGUCAGGUUCUGGUGAAUCUGCGAAUUCUGCUGUAUAUCUC [A13U A18G A47G] here?
**A.** 0.36

**Q.** Which self-cleavage does the source give for UAACAGGGGGCCUCAGCGGAAGUGUUCACGUCGCAGCCCCUGACAGAUUCUGGAGAAUCUGCGAAUUCUGCUGUAUAUCUC [A13U A18G C23U U43A U54A] here?
**A.** 0.18

**Q.** With UAACAGGGGGCCUCAGCGGAAGUGUUCACGUCGCAGCCCCUGUCAGAUUCUGGAGAAUCUGCGAAUUCUGCCGUAUAUCUC [A13U A18G C23U U54A U72C] as the variant, how does the self-cleavage read?
**A.** 0.16

**Q.** For UAACAGGGGGCCUCAGCGGAAGCGUUCACGUCGAAGCCCCUGUCAGAUUCUGGUGAAUCUGCGAAUUCUGCCGUAUAUCUC [A13U A18G C34A U72C], which self-cleavage is on record?
**A.** 0.1

**Q.** Which self-cleavage does the source give for UAACAGGGGGCCUCAGCGGAAGCGUUCACGUCGCAGCCCCUGUCAAAUUCUGGUGAAUCUGCGAAUUCUGCUGUAAAUCUC [A13U A18G G46A U76A] here?
**A.** 0.18

**Q.** With UAACAGGGGGCCUCAGCGGAAGCGCUCACGCCGCAGCCCCUGUCAGAUCCUGGUGAAUCUGCGAAAUCUGCUGUAUAUCUC [A13U A18G U25C U31C U49C U66A] as the variant, how does the self-cleavage read?
**A.** 0

**Q.** For UAACAGGGGGCCUCAGCGGAAGCGUCCACGUCGCUGCCCCUGUCAGAUUCUGGUGAAUCUGCGAAUUUUGCUGUAUAUCUC [A13U A18G U26C A35U C68U], which self-cleavage is on record?
**A.** 0.09

**Q.** For UAACAGGGGGCCUCAGCGGAAGCGUUCACGUCGCAGCCCCAGUCAGAUUCUAGUGGAUCCGCGAAUUCUGCUGUAUAUCGC [A13U A18G U41A G52A A56G U60C U80G], which self-cleavage is on record?
**A.** 0.35

**Q.** With UAACAGGGGGCCUCAGCGGAAGCGUUCACGUCGCAGCCCCAGUCAGAUUCAGGUGAAUCAGCGACUUCUGCUGUAUAACUC [A13U A18G U41A U51A U60A A65C U78A] as the variant, how does the self-cleavage read?
**A.** 0.06

**Q.** For UAACAGGGGGCCUCAGCGGAAGCGUUCACGUCGCAGCCCCUGACAGAUUCUGGUGAAUCUGCGAAUUCUGCUGUAUAUCUC [A13U A18G U43A], which self-cleavage is on record?
**A.** 0.96

**Q.** Which self-cleavage does the source give for UAACAGGGGGCCUCAGCGGAAGCGUUCACGUCGCAGCCCCUGACAGAUUCUGGUGAGUCUGCGAAUUCUGCUGUAUAUCUC [A13U A18G U43A A57G] here?
**A.** 0.56

**Q.** With UAACAGGGGGCCUCAGCGGAAGCGUUCACGUCGCAGCCCCUGCCAGAUUCUGGUGAACCCGCGAAUUCUGCUGUAUUUCUC [A13U A18G U43C U58C U60C A77U] as the variant, how does the self-cleavage read?
**A.** 0.03

**Q.** Which self-cleavage does the source give for UAACAGGGGGCCUCAGCGGAAGCGUUCACGUCGCAGCCCCUGCCAGAUUCUGGUGAAUCUGCGAAUUCUGCUGUAUACCUC [A13U A18G U43C U78C] here?
**A.** 0.14

**Q.** For UAACAGGGGGCCUCAGCGGAAGCGUUCACGUCGCAGCCCCUGUCAGACUCUGGUGAAUCUGCGAAUUCUGCUGUAUAUCUC [A13U A18G U48C], which self-cleavage is on record?
**A.** 0.37

**Q.** With UAACAGGGGGCCUCAGCGGAAGCGUUCACGUCGCAGCCCCUGUCAGACUCUGGUGAAUCUGCGAAUUCUGCUGCAUAUCUC [A13U A18G U48C U74C] as the variant, how does the self-cleavage read?
**A.** 0.18

**Q.** For UAACAGGGGGCCUCAGCGGAAGCGUUCACGUCGCAGCCCCUGUCAGAUUCUGGAGAAUCUGCGAAUUCUGCUGUAUAUCUC [A13U A18G U54A], which self-cleavage is on record?
**A.** 0.94

**Q.** With UAACAGGGGGCCUCAGCGGAAGCGUUCACGUCGCAGCCCCUGUCAGAUUCUGGUGAACCUGCGAAUUCUGCUGUAUACCUC [A13U A18G U58C U78C] as the variant, how does the self-cleavage read?
**A.** 0.35

**Q.** With UAACAGGGGGCCUCAGCGGAAGCGUUCACGUCGCAGCCCCUGUCAGAUUCUGGUGAAUCUGCGAAUUCUGCUGGUUAUCUC [A13U A18G U74G A75U] as the variant, how does the self-cleavage read?
**A.** 1.23

**Q.** With UAACAGGGGGCCUCAGCUGCAGCGUUCACGUCGCAGCCCCUGUCAGAUUCUGGUGAAUCUGCGAAUUCUGCUGUUUAUCUC [A13U A18U A20C A75U] as the variant, how does the self-cleavage read?
**A.** 0.4
